Data published in publication PMC4336329 (PLoS ONE, 2015).
Out of some 310,000 compounds screened, about 14,000 (4.5%) showed an effect of 50% or more. Effects have a minus sign here. This is one part of the list.

Each compound was assayed against human ether-à-go-go-related gene (hERG) potassium channel (human, UniProt Q12809) (assay: primary screen, population patch clamp on CHO cells stably expressing hERG).
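Note: peak tail current of the secondary pulse compared with the same well before compound.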

human ether-à-go-go-related gene (hERG) potassium channel, sequence (Q12809 whole entry, looked up): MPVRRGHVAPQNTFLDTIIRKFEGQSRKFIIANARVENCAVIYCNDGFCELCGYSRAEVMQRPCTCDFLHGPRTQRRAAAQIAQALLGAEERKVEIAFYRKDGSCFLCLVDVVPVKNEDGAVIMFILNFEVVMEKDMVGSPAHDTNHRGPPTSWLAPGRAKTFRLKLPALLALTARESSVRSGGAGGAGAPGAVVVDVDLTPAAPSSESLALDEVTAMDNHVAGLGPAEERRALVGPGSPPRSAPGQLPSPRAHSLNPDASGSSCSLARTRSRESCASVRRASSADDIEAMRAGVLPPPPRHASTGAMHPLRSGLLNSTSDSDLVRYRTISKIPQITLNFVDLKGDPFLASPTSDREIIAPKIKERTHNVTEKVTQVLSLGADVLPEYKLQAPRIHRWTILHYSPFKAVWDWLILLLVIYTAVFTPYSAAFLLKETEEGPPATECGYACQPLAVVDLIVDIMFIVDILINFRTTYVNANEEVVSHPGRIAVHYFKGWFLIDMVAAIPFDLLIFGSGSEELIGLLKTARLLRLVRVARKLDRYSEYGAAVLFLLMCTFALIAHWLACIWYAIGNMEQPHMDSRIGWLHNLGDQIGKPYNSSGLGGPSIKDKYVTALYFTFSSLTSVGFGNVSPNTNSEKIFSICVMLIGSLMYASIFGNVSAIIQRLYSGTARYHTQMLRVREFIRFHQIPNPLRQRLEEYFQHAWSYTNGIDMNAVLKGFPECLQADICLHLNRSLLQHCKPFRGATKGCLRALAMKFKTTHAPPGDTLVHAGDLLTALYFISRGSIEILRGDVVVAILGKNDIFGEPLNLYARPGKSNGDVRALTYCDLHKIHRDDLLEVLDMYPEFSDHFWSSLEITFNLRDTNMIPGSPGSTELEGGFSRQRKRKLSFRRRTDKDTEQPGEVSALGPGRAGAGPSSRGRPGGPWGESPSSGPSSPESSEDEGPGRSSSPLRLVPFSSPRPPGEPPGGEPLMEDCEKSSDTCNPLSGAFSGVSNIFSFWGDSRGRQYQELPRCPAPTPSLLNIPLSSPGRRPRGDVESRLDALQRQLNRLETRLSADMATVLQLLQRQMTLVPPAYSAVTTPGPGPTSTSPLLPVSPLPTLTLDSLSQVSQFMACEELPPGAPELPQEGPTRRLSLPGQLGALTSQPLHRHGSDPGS

First: CC(C)Cn1c(SC(C)C(=O)NCC2CCCO2)nc2ccc(Cl)cc2c1=O (stereo not drawn)
Second: COc1ccccc1-c1nc(SCC(=O)NCC2CCCO2)c2c(=O)n(C)c(=O)n(C)c2n1 (stereo not drawn)
The “hERG current change (%, negative = inhibition) at 10uM” value of the first is higher: 8.71% for the first, 1.03% for the second.

Going from `CCC(=O)n1nc(-c2ccc(Cl)cc2)nc1NCc1ccccc1` to `Cc1cc([N+](=O)[O-])ccc1NCc1ccccc1`, the “hERG current change (%, negative = inhibition) at 10uM” value falls from 4.15% to -14.1%.

Going from `CC(=O)Nc1ccc(N2C(=O)CC(N3CCSCC3)C2=O)cc1` (stereo not drawn) to `O=C(CCc1ccccc1)Nc1ccc(N2CCCCC2)cc1`, the “hERG current change (%, negative = inhibition) at 10uM” value falls from 5.45% to -1.58%.

Going from `O=C(NCc1cccs1)C1CCN(S(=O)(=O)c2ccc(Br)s2)CC1` to `CC(=O)NCCNC(=O)C1CCCCN1S(=O)(=O)c1ccccc1` (stereo not drawn), the “hERG current change (%, negative = inhibition) at 10uM” value rises from -14.8% to 5.43%.

Going from `CCC(CC)C(=O)c1c[nH]c(C(=O)NCCCN2CCOCC2)c1` to `CCC(=O)c1c[nH]c(C(=O)NCc2ccco2)c1`, the “hERG current change (%, negative = inhibition) at 10uM” value falls from -5.06% to -8.24%.

Compared with `CC(=O)N1c2ccc(S(=O)(=O)N3CCCC(C(=O)N4CCCCC4)C3)cc2CC1C` (stereo not drawn), `CS(=O)(=O)Nc1ccc(N2CCCCC2)c(Cl)c1` is lower in “hERG current change (%, negative = inhibition) at 10uM” value: 19.2% for the first, -32.6% for the second.

Compared with `O=C(CNC(=O)C12CC3CC(CC(C3)C1)C2)NCc1ccccc1`, `CCCC(=O)NNC(=O)CCC(=O)NCc1ccccc1` is higher in “hERG current change (%, negative = inhibition) at 10uM” value: -3.32% for the first, 9.44% for the second.

Compared with `COc1cccc(CC2(CO)CCCN(Cc3ccc(C)s3)C2)c1` (stereo not drawn), `O=C(NCCc1ccccc1)c1ccc2c(c1)OCCCO2` is higher in “hERG current change (%, negative = inhibition) at 10uM” value: -50.5% for the first, 17.4% for the second.

Compared with `Cn1cc(C=O)c(-c2ccc3c(c2)OCCCO3)n1`, `O=c1cc(-c2ccc(Cl)cc2)oc(=O)[nH]1` is higher in “hERG current change (%, negative = inhibition) at 10uM” value: 13.3% for the first, 14.1% for the second.

First: CN(C)c1ccc(N2C(=NC(=O)COc3ccccc3)SC3CS(=O)(=O)CC32)cc1 (stereo not drawn)
Second: COc1ccc(NC(=O)CN(C)C(=O)C2CC(=O)N(Cc3ccc(C)cc3)C2)cc1 (stereo not drawn)
The “hERG current change (%, negative = inhibition) at 10uM” value of the first is higher: 23.7% for the first, 4.41% for the second.

Compared with `CCCCN(C(=O)Cc1ccc(S(=O)(=O)N2CCOCC2)s1)c1c(N)n(CCCC)c(=O)[nH]c1=O`, `COCCn1c(C)cc(C(=O)COC(=O)CCc2ccc(S(=O)(=O)N3CCOCC3)cc2)c1C` is higher in “hERG current change (%, negative = inhibition) at 10uM” value: 0.586% for the first, 2.19% for the second.

First: COc1cc(/C=N\NC(=O)CC#N)ccc1OC/C=C/c1ccccc1
Second: CC(=O)n1cc(/C=N/NC(=O)c2cccc(O)c2)c2ccccc21
The “hERG current change (%, negative = inhibition) at 10uM” value of the first is higher: 4.71% for the first, 2.85% for the second.

Compared with `O=C(CNC(=O)c1ccco1)OCc1ccc(C(=O)Oc2ccccc2)cc1`, `O=C(NNC(=O)c1ccccc1F)c1ccco1` is higher in “hERG current change (%, negative = inhibition) at 10uM” value: -73.6% for the first, 16% for the second.

Compared with `O=C(NCCCN1CCN(c2ccccc2F)CC1)C1CC(=O)N(C2CCCC2)C1` (stereo not drawn), `Cc1cc2[nH]c(=O)c(=O)[nH]c2cc1S(=O)(=O)N1CCN(c2ccccc2F)CC1` is higher in “hERG current change (%, negative = inhibition) at 10uM” value: -9.49% for the first, 18.1% for the second.

Going from `COc1nc(OC)nc(N2CCC(C(=O)NCc3ccc(F)cc3)CC2)n1` to `O=C(Nc1nc2c(F)cc(F)cc2s1)C1CCN(C(=O)c2ccc(F)cc2)CC1`, the “hERG current change (%, negative = inhibition) at 10uM” value rises from -44.9% to 4.26%.

Going from `Cc1ccc(C(=O)OCc2c(C)noc2C)cc1NC(=O)c1ccco1` to `Cc1noc(C)c1C(=O)Nc1sc(C)c(-c2ccccc2)c1C#N`, the “hERG current change (%, negative = inhibition) at 10uM” value rises from -16.6% to -2.24%.

Compared with `CCOC(=O)C1=C(C)NC(=O)NC1c1ccccc1OCc1c(F)cccc1Cl` (stereo not drawn), `COc1cccc(C(=O)OCC(=O)c2c[nH]c3ccccc23)c1OC` is higher in “hERG current change (%, negative = inhibition) at 10uM” value: -12.7% for the first, 6.17% for the second.

Compared with `CCOc1ccc(C(C)C)cc1S(=O)(=O)N1CCN(C(=O)c2ccco2)CC1`, `Nc1nccnc1C(=O)OCC(=O)N1CCN(S(=O)(=O)c2ccc(Cl)cc2)CC1` is lower in “hERG current change (%, negative = inhibition) at 10uM” value: 3.94% for the first, -15.4% for the second.

Going from `CC(C)CCNC(=O)C(c1cccnc1)N(Cc1ccccc1)C(=O)Cn1nnc2ccccc21` (stereo not drawn) to `CCOc1ccccc1CNC(=O)CCNC(=O)Cn1ccc2ccccc2c1=O`, the “hERG current change (%, negative = inhibition) at 10uM” value rises from -18.6% to 5.64%.

Compared with `CC1CN(S(=O)(=O)c2cccc(C(=O)NNC(=O)C(C)Oc3ccccc3F)c2)CC(C)O1` (stereo not drawn), `COc1ccc(-c2noc(CN(C)S(=O)(=O)c3ccccc3)n2)cc1OC` is higher in “hERG current change (%, negative = inhibition) at 10uM” value: -6.62% for the first, 11.2% for the second.

Compared with `Cc1nc(N2N=C(c3ccc(Cl)cc3)CC2c2ccco2)sc1C(=O)N(C)C` (stereo not drawn), `Cc1ccc(S(=O)(=O)N(CC(=O)NCc2ccccn2)c2ccc(Cl)cc2)cc1` is lower in “hERG current change (%, negative = inhibition) at 10uM” value: -10.8% for the first, -29.7% for the second.

Compared with `CCCn1nc2cc(C(=O)NC3CCc4ccccc43)ccc2c1OCC` (stereo not drawn), `Cc1cc(NC(=O)c2cc(-c3cccc(OCC(C)C)c3)nc3ccccc23)no1` is higher in “hERG current change (%, negative = inhibition) at 10uM” value: 1.48% for the first, 18.5% for the second.

First: O=S(=O)(c1ccc(S(=O)(=O)n2cnc3ccccc32)cc1)N1CCCCCC1
Second: O=C(O)c1cc(S(=O)(=O)N2CCCCCC2)c(Cl)cc1Cl
The “hERG current change (%, negative = inhibition) at 10uM” value of the first is higher: 3.15% for the first, 1.49% for the second.

Compared with `CCOc1ncccc1C(=O)Nc1cc(S(=O)(=O)N2CCOCC2)ccc1N1CCCC1`, `O=C(c1ccc(CS(=O)(=O)c2ccc(Br)cc2)o1)N1CCOCC1` is higher in “hERG current change (%, negative = inhibition) at 10uM” value: -24.3% for the first, -13.9% for the second.

Compared with `O=C(NCCCn1ccnc1)Nc1cccc(Cl)c1`, `NC(=O)NOCc1cccc(Cl)c1` is higher in “hERG current change (%, negative = inhibition) at 10uM” value: -3% for the first, 12.2% for the second.

Compared with `Fc1cccc(C2CC(c3cccc(Br)c3)Nc3nnnn32)c1` (stereo not drawn), `Cc1ccc(-n2nnnc2-c2cccs2)cc1[N+](=O)[O-]` is lower in “hERG current change (%, negative = inhibition) at 10uM” value: -3.02% for the first, -11.8% for the second.

First: COc1ccc(NC(=O)C(c2ccccc2)N2CCN(c3ccccn3)CC2)cc1Cl (stereo not drawn)
Second: O=C(Nc1ccc(F)cc1)c1cc(-c2ccccn2)nc2c(Cl)cccc12
The “hERG current change (%, negative = inhibition) at 10uM” value of the first is lower: -20.9% for the first, 14.3% for the second.

Going from `O=C1NC(c2ccc(-c3ccccc3[N+](=O)[O-])o2)C(C(=O)c2ccc(F)cc2)C(O)(C(F)(F)F)N1` (stereo not drawn) to `NC(=O)c1ccc(NC(=O)c2ccc(COc3ccc(F)cc3)o2)cc1`, the “hERG current change (%, negative = inhibition) at 10uM” value rises from 1.31% to 3.47%.

Going from `O=C(OCC(=O)N1CCCCC1)c1c[nH]c(=O)[nH]c1=O` to `CCOC(=O)c1c(C)c(-c2ccccc2)n(CC(=O)N2CCN(C)CC2)c1C`, the “hERG current change (%, negative = inhibition) at 10uM” value rises from -6.27% to -5.56%.

Going from `Cc1ccc(CNC(=O)c2coc(=O)c3ccccc23)o1` to `COc1ccc2[nH]c(=O)c(CN(C(=O)C(C)C)c3ccccc3OC)cc2c1`, the “hERG current change (%, negative = inhibition) at 10uM” value falls from 3.63% to -2.54%.

Going from `CC(=O)c1ccc(N2CCN(C(=O)Cc3cccs3)CC2)cc1` to `CC(C)(C)c1ccc(S(=O)(=O)N2CCN(Cc3cc4c(cc3O)OCO4)CC2)cc1`, the “hERG current change (%, negative = inhibition) at 10uM” value rises from -33.3% to -9.21%.

Compared with `COc1ccc(-n2cc([N+](=O)[O-])c(=O)c3ccc(Cl)cc32)cc1`, `O=c1c2ccccc2cnn1Cc1ccc(Cl)c(Cl)c1` is higher in “hERG current change (%, negative = inhibition) at 10uM” value: -2.07% for the first, 12.1% for the second.

First: CC1(C)CC(=O)C(=CN2CCOCC2)C(=O)C1
Second: O=C(c1ccc2c(c1)OCO2)N1CCC2(CC1)Oc1ccc(Cl)cc1C(=O)C21CC(c2cccnc2)=NO1 (stereo not drawn)
The “hERG current change (%, negative = inhibition) at 10uM” value of the first is higher: -0.13% for the first, -12.2% for the second.

Compared with `O=C(c1ccccc1)c1c2c(cc3sc4ccccc4[n+]13)-c1cccc3cccc-2c13.[Br-]`, `Cc1cc(C)cc(SCc2noc(C(=O)NCc3ccccc3)c2C(=O)NCc2ccccc2)c1` is higher in “hERG current change (%, negative = inhibition) at 10uM” value: -76.8% for the first, 15% for the second.

Compared with `COc1ccc(/C=N/Nc2ccccn2)c(OC)c1OC`, `Cc1cc(=O)[nH]c(N/N=C/c2ccc(N(C)C)cc2)n1` is lower in “hERG current change (%, negative = inhibition) at 10uM” value: 3.27% for the first, -0.898% for the second.

Going from `Cc1nnc(N/N=C/C2CC=CCC2)[nH]c1=O` (stereo not drawn) to `CC1CCCCC1NC(=O)CSc1nnc(-c2ccccc2)n1N` (stereo not drawn), the “hERG current change (%, negative = inhibition) at 10uM” value rises from 7.06% to 9.28%.

Going from `CN(CCO)c1cc(N(C)CCO)c([N+](=O)[O-])cc1[N+](=O)[O-]` to `CCOc1cc(/C=C/C(=O)O)ccc1OCCO`, the “hERG current change (%, negative = inhibition) at 10uM” value rises from 2.07% to 6.59%.

Going from `Cc1ccc(NCC(O)C(O)C(O)CO)cc1C` (stereo not drawn) to `CCOC(=O)CNC(=O)CNC(=O)c1ccc(OC)cc1`, the “hERG current change (%, negative = inhibition) at 10uM” value falls from 14.9% to 13.9%.

First: Cn1c(NC(=O)C[n+]2cc(-c3ccc(Cl)c(Cl)c3)n3c2CCC3)cc(=O)n(C)c1=O.[Cl-]
Second: O=C(CSc1nnc(Cc2cccs2)n1Cc1ccco1)Nc1cc(Cl)cc(Cl)c1
The “hERG current change (%, negative = inhibition) at 10uM” value of the first is lower: -8.45% for the first, -8.25% for the second.

First: CC1CCC2(CC1)N=C(N)Nc1nc3ccccc3n12 (stereo not drawn)
Second: CN(c1ccccc1)c1nc(-n2ccnc2)nc(-n2ccnc2)n1
The “hERG current change (%, negative = inhibition) at 10uM” value of the first is higher: -13.6% for the first, -67.7% for the second.

Going from `COc1cccc(OCC(=O)Nc2ccncc2)c1` to `O=C(CCCN1C(=O)/C(=C\c2cccc(Br)c2)SC1=S)Nc1cccnc1`, the “hERG current change (%, negative = inhibition) at 10uM” value rises from 5.03% to 6.32%.

Compared with `CN(C)C(/C=C/Nc1ccc(Br)cc1)=C(C#N)C#N`, `Cc1ccccc1Nc1c(F)c(F)c(F)c(F)c1C(=O)O` is higher in “hERG current change (%, negative = inhibition) at 10uM” value: -17.9% for the first, 9.82% for the second.

Going from `Cc1ccc(Cl)cc1NC(=O)C1CCCN(S(=O)(=O)c2c(C)noc2C)C1` (stereo not drawn) to `CC(C)CCNC(=O)C(CC(C)C)N(Cc1ccc2c(c1)OCO2)C(=O)c1snc(C(N)=O)c1N` (stereo not drawn), the “hERG current change (%, negative = inhibition) at 10uM” value falls from 6.08% to -0.977%.

`CCCC1C(c2ccco2)NC(c2ccco2)CC1(C)O.O=C(O)C(=O)O` (stereo not drawn) was tested, and the “hERG current change (%, negative = inhibition) at 10uM” value was 0.914%.
